Source: publication PMC4336329 (PLoS ONE, 2015)
Screen size: about 310,000 compounds; about 14,000 (4.5%) showed an effect of 50% or more. Effects have a minus sign here. The list shows a part of the results.

Biological target: human ether-à-go-go-related gene (hERG) potassium channel (human, UniProt Q12809)
Assay: primary screen, population patch clamp on CHO cells stably expressing hERG
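Also: peak tail current of the secondary pulse compared with the same well before compound.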

Sequence of human ether-à-go-go-related gene (hERG) potassium channel (Q12809 whole entry, looked up): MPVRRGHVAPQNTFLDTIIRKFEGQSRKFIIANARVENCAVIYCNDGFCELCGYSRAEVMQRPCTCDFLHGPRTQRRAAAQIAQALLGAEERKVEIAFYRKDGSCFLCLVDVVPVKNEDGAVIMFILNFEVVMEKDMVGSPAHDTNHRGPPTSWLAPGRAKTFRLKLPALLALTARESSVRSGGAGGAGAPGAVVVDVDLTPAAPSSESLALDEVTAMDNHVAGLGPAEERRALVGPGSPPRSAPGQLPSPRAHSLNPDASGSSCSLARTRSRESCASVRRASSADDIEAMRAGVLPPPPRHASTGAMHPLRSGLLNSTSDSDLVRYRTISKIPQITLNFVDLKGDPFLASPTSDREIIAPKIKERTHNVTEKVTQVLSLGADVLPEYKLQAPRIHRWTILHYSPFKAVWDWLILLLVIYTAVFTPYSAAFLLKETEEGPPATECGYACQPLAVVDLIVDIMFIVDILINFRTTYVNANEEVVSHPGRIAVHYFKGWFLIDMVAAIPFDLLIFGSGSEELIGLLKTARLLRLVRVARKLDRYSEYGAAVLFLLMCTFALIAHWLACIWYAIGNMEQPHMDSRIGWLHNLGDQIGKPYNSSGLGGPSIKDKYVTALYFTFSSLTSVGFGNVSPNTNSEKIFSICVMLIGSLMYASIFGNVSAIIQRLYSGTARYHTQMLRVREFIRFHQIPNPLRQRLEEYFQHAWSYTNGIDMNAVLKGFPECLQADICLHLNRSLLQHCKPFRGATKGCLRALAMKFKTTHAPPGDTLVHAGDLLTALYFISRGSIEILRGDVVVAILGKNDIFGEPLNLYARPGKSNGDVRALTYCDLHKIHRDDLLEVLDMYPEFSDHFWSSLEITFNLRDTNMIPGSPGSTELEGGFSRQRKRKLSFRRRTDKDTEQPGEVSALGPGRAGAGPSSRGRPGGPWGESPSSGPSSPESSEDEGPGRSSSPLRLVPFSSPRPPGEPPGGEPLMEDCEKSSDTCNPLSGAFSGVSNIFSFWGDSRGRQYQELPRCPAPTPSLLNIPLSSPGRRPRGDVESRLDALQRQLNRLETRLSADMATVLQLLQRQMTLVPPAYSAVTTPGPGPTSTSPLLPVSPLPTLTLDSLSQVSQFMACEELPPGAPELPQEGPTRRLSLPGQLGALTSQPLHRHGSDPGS

Going from `O=C(COC(=O)COc1ccccc1)Nc1ccccc1OC(F)F` to `O=C(COC(=O)c1ccccn1)Nc1nc(-c2ccccc2)cs1`, the “hERG current change (%, negative = inhibition) at 10uM” value rises from 2.06% to 22.7%.

First: C=CCn1c(CNC(=O)c2ccco2)nnc1SCC(=O)Nc1cccc(F)c1
Second: N#CCCn1c(SCC(=O)NCCc2ccc(F)cc2)nc2ccccc21
The “hERG current change (%, negative = inhibition) at 10uM” value of the first is higher: -19.7% for the first, -27.7% for the second.

Compared with `Cc1cccc(NC(=O)CSc2nnc(-c3ccc(S(=O)(=O)N4CCCC4)cc3)o2)c1`, `COc1ccc(S(=O)(=O)N2CCCCC2)cc1NC(=O)Cc1sc(C)nc1-c1ccc(F)cc1` is higher in “hERG current change (%, negative = inhibition) at 10uM” value: -5.59% for the first, -3.53% for the second.

Compared with `Cc1cc(C(=O)OCC(=O)NC2CCC(C)CC2)c(C)o1` (stereo not drawn), `O=C(COC(=O)CNC(=O)c1ccc(Cl)cc1)NC1CCCCCC1` is higher in “hERG current change (%, negative = inhibition) at 10uM” value: 10.8% for the first, 11.9% for the second.

First: O=C(ON=C1CCN(S(=O)(=O)c2ccccc2)CC1)c1ccccc1
Second: O=C(C1CCN(S(=O)(=O)c2ccc(F)cc2)CC1)N1CC=C(c2ccccc2)CC1
The “hERG current change (%, negative = inhibition) at 10uM” value of the first is lower: -31.6% for the first, -27% for the second.

First: Cc1ccc(S(=O)(=O)NCC(=O)OCC(=O)NCc2cccs2)cc1
Second: CCN(CC(=O)NCc1cccs1)C(=O)COc1ccc(C(N)=O)cc1
The “hERG current change (%, negative = inhibition) at 10uM” value of the first is lower: -3.82% for the first, 6.69% for the second.

First: CCCNc1ncnc2sc(C)c(C)c12
Second: CCCn1nc(NS(C)(=O)=O)c2cc3cccc(C)c3nc21
The “hERG current change (%, negative = inhibition) at 10uM” value of the first is lower: -1.05% for the first, 6.04% for the second.

Going from `CCOC(=O)C1CCN(S(=O)(=O)c2ccc(NC(=O)c3ccco3)cc2)CC1` to `Cc1cc(N2CCC(C(=O)Nc3ccc(F)cc3)CC2)nc(-c2ccccc2)n1`, the “hERG current change (%, negative = inhibition) at 10uM” value rises from -46.3% to -32.9%.

First: CCCc1cc(=O)[nH]c(SCC(=O)Nc2cc(S(=O)(=O)N3CCCCC3)ccc2C)n1
Second: Cc1cc(C(F)F)n2nc(C(=O)Nc3cccc(S(=O)(=O)N4CCOCC4)c3)nc2n1
The “hERG current change (%, negative = inhibition) at 10uM” value of the first is higher: -7.69% for the first, -8.28% for the second.

Going from `COCCNC(=S)Nc1ccc([N+](=O)[O-])cc1C` to `CC(C)(CNc1ccc([N+](=O)[O-])cc1C#N)N1CCOCC1`, the “hERG current change (%, negative = inhibition) at 10uM” value falls from 32.5% to -30.9%.

Going from `COC(=O)[C@@H](NC(=O)NCc1cccs1)C(C)C` to `COc1ccc(CNC(=O)C(C)OC(=O)c2cccn2C)cc1` (stereo not drawn), the “hERG current change (%, negative = inhibition) at 10uM” value falls from -1.33% to -4.51%.

Compared with `Cc1nn(-c2ccccc2)c(C)c1C(=O)OCC(=O)NCc1ccco1`, `O=C(COC(=O)c1cncc(Br)c1)NCc1ccccc1` is higher in “hERG current change (%, negative = inhibition) at 10uM” value: -3.98% for the first, 5.94% for the second.

Going from `CCCC(=O)NC(=S)Nc1c(C)cc(Br)cc1C` to `COc1cc(CCC(=O)OCC(=O)Nc2ccccc2F)cc(OC)c1OC`, the “hERG current change (%, negative = inhibition) at 10uM” value rises from -8.92% to 23.1%.

Compared with `CCCCC1NC(=S)N(C2CCCCC2)C1=O` (stereo not drawn), `CN(CC(O)COc1ccccc1F)C1CCCCC1.Cl` (stereo not drawn) is higher in “hERG current change (%, negative = inhibition) at 10uM” value: -8.35% for the first, 2.08% for the second.

Going from `CCOC(=O)C1(Cc2ccccc2C)CCCN(C(=O)c2ccc(COC)o2)C1` (stereo not drawn) to `Cc1ccc(C)c(CN2C(=O)CSc3ccc(C(=O)N4CCCC4)cc32)c1`, the “hERG current change (%, negative = inhibition) at 10uM” value falls from -7.74% to -17%.

First: COc1ccc(CNc2nc3ccc(C)cc3s2)c(OC)c1OC
Second: COc1cc(-c2nc3n(n2)C(c2cccc(OC)c2OC)C2=C(CCCC2=O)N3)cc(OC)c1OC (stereo not drawn)
The “hERG current change (%, negative = inhibition) at 10uM” value of the first is lower: -33.9% for the first, -16.1% for the second.

First: CCCCn1c(NS(=O)(=O)c2ccccc2)c(S(=O)(=O)c2ccc(C)cc2)c2nc3ccccc3nc21
Second: O=C(Nn1c(-c2ccccc2)nc2ccccc2c1=O)c1ccc([N+](=O)[O-])cc1
The “hERG current change (%, negative = inhibition) at 10uM” value of the first is higher: -0.162% for the first, -15.4% for the second.

Compared with `O=c1c2cc(N3CCOCC3)ccc2[nH]c(=S)n1Cc1ccco1`, `Cn1cnnc1SCC(=O)Nc1ccc(N2CCOCC2)cc1` is higher in “hERG current change (%, negative = inhibition) at 10uM” value: -25.1% for the first, 3.07% for the second.

Compared with `O=C(OCc1ccccc1F)c1ccc2c(c1)-c1ccccc1C2=O`, `Cc1cc(C(=O)Nc2ccccc2C(=O)O)ccc1NC(=O)COc1ccccc1Cl` is lower in “hERG current change (%, negative = inhibition) at 10uM” value: 16.4% for the first, 1.08% for the second.

Compared with `Cc1c(CNC(=O)C2CC2)c(-n2cccc2)n(Cc2ccccc2)c1C`, `c1ccc(CSc2nnc(-c3ccco3)n2Cc2ccccc2)cc1` is lower in “hERG current change (%, negative = inhibition) at 10uM” value: 27.1% for the first, -46% for the second.

Going from `COc1ccc2nc(SCC(=O)N(C)CC(=O)Nc3ccc(F)cc3)[nH]c2c1` to `COc1ccc(CNC(=O)CSc2nnc(C)c(=O)[nH]2)cc1`, the “hERG current change (%, negative = inhibition) at 10uM” value rises from -15.2% to 18.2%.

First: Clc1ccccc1/C=C/C=N/Nc1nc(N2CCOCC2)nc(N2CCOCC2)n1
Second: Cc1nc2ccccc2nc1OCC(=O)N1CCN(c2ccccc2)CC1
The “hERG current change (%, negative = inhibition) at 10uM” value of the first is lower: -58.4% for the first, -4.75% for the second.

Compared with `Cl.NC(=NC1CCCCC1)c1ccc([N+](=O)[O-])cc1`, `CC(=O)Nc1ccc(NC(=O)C(C)OC(=O)CC2CCCCC2)cc1` (stereo not drawn) is higher in “hERG current change (%, negative = inhibition) at 10uM” value: -57.2% for the first, 6.52% for the second.

First: c1ccc(-c2nccc(-c3ccc(-n4cnc5ccccc54)cc3)n2)nc1
Second: CC(=O)Nc1ccc(-c2cc(-c3ccc(NC(C)=O)cc3)nc(-c3ccccc3)n2)cc1
The “hERG current change (%, negative = inhibition) at 10uM” value of the first is lower: -46.6% for the first, 1.34% for the second.

First: O=C(NCC(=O)N(c1cccnc1)C(C(=O)NC1CCCC1)c1ccccc1F)c1ccco1 (stereo not drawn)
Second: CCOc1ccc(C(=O)NCC(c2ccco2)N2CCc3ccccc3C2)cc1 (stereo not drawn)
The “hERG current change (%, negative = inhibition) at 10uM” value of the first is higher: -0.301% for the first, -40.7% for the second.

First: CC(Cc1ccccc1)NC(=O)CC(c1ccccc1)c1ccccc1O (stereo not drawn)
Second: CCN(Cc1cnn(C)c1)Cc1nc(C(c2ccccc2)c2ccccc2)no1
The “hERG current change (%, negative = inhibition) at 10uM” value of the first is higher: 4.42% for the first, -18.2% for the second.

Compared with `CN(C)S(=O)(=O)n1cc(/C=C(\NC(=O)c2ccccc2)C(=O)NCCCN2CCOCC2)c2ccccc21`, `COc1ccccc1N(C)S(=O)(=O)c1ccc(Cl)c(C(=O)NCCCN2CCOCC2)c1` is lower in “hERG current change (%, negative = inhibition) at 10uM” value: 10% for the first, -4.75% for the second.

Going from `CC1CCN(C(=O)C2CCCN(S(=O)(=O)c3cccc4nsnc34)C2)CC1` (stereo not drawn) to `CN1CCN(S(=O)(=O)c2ccc(N3CCN(S(=O)(=O)/C=C/c4ccccc4)CC3)nc2)CC1`, the “hERG current change (%, negative = inhibition) at 10uM” value rises from -27.8% to 10.5%.

First: CCOC(=O)[C@@H]1[C@H]2COc3ccc(Br)cc3[C@@H]2N2C(=O)N(c3cccc(Cl)c3)C(=O)[C@]12C
Second: CCOc1ccc(Cl)cc1C1=CC(=O)C[C@H](c2ccc(OC)cc2)C1
The “hERG current change (%, negative = inhibition) at 10uM” value of the first is higher: 18.5% for the first, -5.35% for the second.

First: CCN(Cc1ccncc1)C(=O)c1ccc(Br)o1
Second: O=C(NCCCCc1ccccc1)c1ccc(Br)o1
The “hERG current change (%, negative = inhibition) at 10uM” value of the first is higher: 1.66% for the first, -32.7% for the second.

First: Cc1ccc(C)c2[nH]c(=O)c(CN(CC3CCCO3)S(=O)(=O)c3ccc4c(c3)OCCO4)cc12 (stereo not drawn)
Second: COc1cc(/C=N\NC(=O)c2ccc(C)nc2)ccc1OC(=O)c1ccc2c(c1)OCO2
The “hERG current change (%, negative = inhibition) at 10uM” value of the first is higher: 0.665% for the first, -7.08% for the second.

First: CC1CCCCC1NC(=O)CO/N=C/c1ccccc1OC(F)F (stereo not drawn)
Second: CN(CCO)C(=O)c1c(NC(=O)c2ccccc2)sc2c1CCCC2
The “hERG current change (%, negative = inhibition) at 10uM” value of the first is lower: -35.8% for the first, 1.64% for the second.

First: Cc1ccc(SCC(=O)OC(C)C(=O)NC2(C#N)CCCCC2)cc1 (stereo not drawn)
Second: COc1ccc(CCN2CC(C(=O)NCc3nc(C)c(C)s3)CCC2=O)cc1 (stereo not drawn)
The “hERG current change (%, negative = inhibition) at 10uM” value of the first is higher: -2.78% for the first, -32.5% for the second.

Compared with `COc1ccc(CN2CCNC(=O)C2CC(=O)NCc2cnn(C)c2)cc1OC` (stereo not drawn), `COc1ccc(C2c3c(oc4ccccc4c3=O)C(=O)N2CCN2CCOCC2)cc1OC` (stereo not drawn) is lower in “hERG current change (%, negative = inhibition) at 10uM” value: 7.27% for the first, 0.149% for the second.

Compared with `CCCOC(=O)c1cc(NC(=O)/C=C/c2ccccc2)ccc1O`, `Cn1c(/C=C/c2ccccc2)nc2ccccc2c1=O` is higher in “hERG current change (%, negative = inhibition) at 10uM” value: 9.86% for the first, 15.1% for the second.

Compared with `Cc1ccc(-c2cnc(-c3ccncc3)o2)cc1`, `Cc1ccc(-c2csc(-c3cc(C)on3)n2)cc1` is higher in “hERG current change (%, negative = inhibition) at 10uM” value: -39.3% for the first, 23.2% for the second.

First: CCN(CC)C1=N/C(=C\c2ccc(OC)cc2)C(=O)N1c1ccccc1
Second: COC(=O)CNc1c(-c2ccccc2)nc2ccc(Br)cn12
The “hERG current change (%, negative = inhibition) at 10uM” value of the first is higher: -10.5% for the first, -37.9% for the second.

Going from `Cn1c(=O)c2c(nc(SCc3ccc(F)cc3)n2C)n(C)c1=O` to `CCCCn1c(=O)[nH]c2nc3cc(N)ccc3nc2c1=O`, the “hERG current change (%, negative = inhibition) at 10uM” value falls from 1.9% to -13.5%.

Going from `COC(=O)c1cccc(Cn2nnc3ccccc3c2=O)c1` to `CN1CCN(C(=O)CN2C(=O)NC(C)(c3ccc4ccccc4c3)C2=O)CC1` (stereo not drawn), the “hERG current change (%, negative = inhibition) at 10uM” value rises from -4.39% to -3.52%.

First: COc1ccc(NC(=O)C(=O)N/N=C/c2cccnc2)c(OC)c1
Second: O=C(N/N=C/c1ccc2c(c1)OCO2)c1ccc(COCC(F)(F)C(F)F)cc1
The “hERG current change (%, negative = inhibition) at 10uM” value of the first is higher: 21.3% for the first, 17.3% for the second.

Compared with `CC(C)COCC1CC2(CC(C)C(=O)CC2=O)C(=O)O1` (stereo not drawn), `COc1cc(-c2nc(CN3CCCCC3CCNC(C)=O)c(C)o2)ccc1F` (stereo not drawn) is lower in “hERG current change (%, negative = inhibition) at 10uM” value: -2.3% for the first, -66.6% for the second.

Compared with `Oc1ccc(-c2cn3c(n2)SCC3)cc1`, `Oc1ccccc1C(=S)N1CCN(C(=S)c2ccccc2O)CC1` is higher in “hERG current change (%, negative = inhibition) at 10uM” value: 6.44% for the first, 18.4% for the second.

Going from `O=C1c2cnc3nc(SCc4ccc(Cl)cc4)nn3c2CC2c3ccccc3CCN12` (stereo not drawn) to `CC(=O)C1=C(O)C(=O)N(CCC(=O)O)C1c1cccc(F)c1` (stereo not drawn), the “hERG current change (%, negative = inhibition) at 10uM” value rises from -4.21% to 11.1%.

In the case of `Cc1nnc(NC(=O)C2CCN(c3cnccn3)CC2)s1`, the “hERG current change (%, negative = inhibition) at 10uM” value is reported as 5.76%.
